Source: PubChem BioAssay AID588342 (National Center for Advancing Translational Sciences (NCATS), 2011)
The whole screen tested about 360,000 compounds, of which about 25,000 (6.9%) were called active. Inconclusive means that the source gave no clear call. Such entries were picked first, then a sample of the others. The call rests on the fitted dose curve; in most records, active means well fitted inhibition curve with a large enough effect; inconclusive means small, poorly fitted or top-dose-only effect; inactive means flat fitted curve, though single readings scatter. Potencies of inconclusive entries are doubtful fits and often do not repeat.

target: Luciferin 4-monooxygenase (Photinus pyralis) (UniProt P08659); assay: qHTS profiling assay for firefly luciferase inhibitor/activator using purifed enzyme and Km concentrations of substrates (counterscreen for miR-21 project); conditions: purified FLuc, luminescence inhibition; activity change, negative = inhibition: at 57.5 µM (top of the series); further: nearly all actives have a fitted effect of over 55% in size;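 on activity change, negative = inhibition: plate controls were vehicle for no effect and reference inhibitor for full effect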
Procedure, shortened: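 Biochemical qHTS of compounds, final roughly 60 µM downward over six points, against 10 nM purified firefly luciferase using Km concentrations of substrates (10 uM D-luciferin, 10 uM ATP) in Tris acetate pH 7.5 buffer; luminescence output.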
Potency means the concentration at half of the fitted maximal effect; tags describe the fitted curve by direction and shape.

Chain of UniProt P08659 (P08659 whole entry, looked up): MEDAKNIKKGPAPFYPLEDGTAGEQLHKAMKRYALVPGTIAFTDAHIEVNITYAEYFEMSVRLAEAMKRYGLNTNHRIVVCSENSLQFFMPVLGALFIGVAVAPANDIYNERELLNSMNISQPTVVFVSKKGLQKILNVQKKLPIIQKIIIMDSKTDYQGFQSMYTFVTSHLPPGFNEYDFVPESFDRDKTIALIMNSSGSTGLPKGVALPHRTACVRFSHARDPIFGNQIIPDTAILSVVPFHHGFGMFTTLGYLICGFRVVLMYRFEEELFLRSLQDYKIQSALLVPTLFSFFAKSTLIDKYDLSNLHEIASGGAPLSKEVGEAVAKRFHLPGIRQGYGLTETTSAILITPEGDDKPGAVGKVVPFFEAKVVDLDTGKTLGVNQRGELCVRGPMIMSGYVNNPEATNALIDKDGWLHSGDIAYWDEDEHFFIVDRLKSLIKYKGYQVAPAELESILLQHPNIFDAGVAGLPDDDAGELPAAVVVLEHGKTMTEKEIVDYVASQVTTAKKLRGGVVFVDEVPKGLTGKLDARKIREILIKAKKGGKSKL

SMILES	Potency	activity change, negative = inhibition
Cc1ccc(Nc2nc(N)c([N+](=O)[O-])c(NCc3ccco3)n2)cc1C	active: 23.9 µM	–
COc1ccc(OC)c(C(=O)c2c(C)oc3cc([N+](=O)[O-])c(O)c([N+](=O)[O-])c23)c1	active: 21.3 µM	–
Cc1cccc(C(=O)NNC2=CC(=O)CC(C)(C)C2)c1O	active: 10.7 µM	–
O=c1c(C=NCCCO)c(-c2ccccc2)[nH]n1-c1nc2ccccc2s1	active: 15.1 µM	–
Cc1ccc(NC(=O)CSc2n[nH]c(-c3ccc(F)cc3)n2)cc1F	inconclusive: 21.3 µM [inhibitor, partial curve, poor fit]	–
O=C(Nc1ccc(N2CCOCC2)c(F)c1)c1ccncc1	inconclusive: 19 µM [inhibitor, partial curve, poor fit]	–
CC(C)(C)c1ccc(OCC(=O)OCCNC(=O)c2cccnc2)cc1	inconclusive: 16.9 µM [inhibitor, partial curve]	–
COCc1cccc(NC(=O)CCc2ccccc2)c1	inconclusive: 26.9 µM [inhibitor, partial curve, poor fit]	–
CN(C(=O)CSc1nc2cc(C(=O)O)ccc2c(=O)n1Cc1ccccc1)C1CCS(=O)(=O)C1 (stereo unspecified)	inconclusive: 37.9 µM [inhibitor, partial curve, poor fit]	–
CSc1ccc(CCNC(=O)CCc2c(C)nc3c(c(C)nn3-c3ccc(C)c(C)c3)c2C)cc1	–	inactive: 2.57%
COc1ccc(C(=O)OCCN2C(=O)c3ccccc3C2=O)cc1	inconclusive: 23.9 µM [inhibitor, partial curve, poor fit]	–
N#Cc1cc(C#N)c(N2CCN(c3cccc(Cl)n3)CC2)nc1N	inconclusive: 26.9 µM [inhibitor, partial curve, poor fit]	–
CCOC(=O)N1CCN(Cc2c(NC(=O)c3ccco3)sc(C)c2C)CC1	inconclusive: 2.69 µM [inhibitor, full curve]	–
CCOC(=O)c1cccc(NC(=O)c2ccc3nc(C(C)C)oc3c2)c1	inconclusive: 30.1 µM [inhibitor, partial curve, poor fit]	–
O=c1oc(-c2ccco2)nc2sc3c(c12)CCCC3	active: 1.51 µM	–
COC(=O)C(=Nc1ccccc1)/C(C(=O)C(=O)N(C)c1ccccc1)=C(\O)c1ccc(Cl)cc1	inconclusive: 12 µM [inhibitor, partial curve]	–
O=c1c2cc(Br)ccc2nc2n1CCCCC2	inconclusive: 16.9 µM [inhibitor, partial curve]	–
CC(=O)Nc1cccc(-c2nc3ccc(NC(C)=O)cc3[nH]2)c1	active: 15.1 µM	–
Fc1ccc(CSc2nc3ncccc3[nH]2)cc1	active: 13.5 µM	–
Nc1ccc2nc(SCC(=O)Nc3ccc(N4CCOCC4)c(Cl)c3)sc2c1	inconclusive: 12 µM [inhibitor, partial curve, poor fit]	–
CC(C)c1ccc(NC(=O)NCc2ccccn2)cc1	inconclusive: 37.9 µM [inhibitor, single point]	–
O=C(Nc1ccc2c(c1)OCCO2)C1CCN(C(=O)c2ccc(F)cc2)CC1	inconclusive: 16.9 µM [inhibitor, partial curve]	–
CN(C)S(=O)(=O)c1ccc(C(=O)Nc2ccccc2SCCC#N)cc1	inconclusive: 13.5 µM [inhibitor, partial curve, poor fit]	–
COc1ccc(-c2cc(-c3cc(F)ccc3O)[nH]n2)cc1OC	active: 8.49 µM	–

SMILES	Potency	activity change, negative = inhibition
O=Cc1ccc(OCc2cccc(C(F)(F)F)c2)cc1O	inconclusive: 37.9 µM [inhibitor, single point]	–
N#C/C(=C\c1cccc(Br)c1)C(=O)N1CCCCC1	inconclusive: 37.9 µM [inhibitor, partial curve, poor fit]	–
CN1CCN(c2ccc(C(=O)c3ccc(F)cc3)cc2)CC1	active: 10.7 µM	–
O=C(O)c1cc(Cl)c(Cl)cc1C(=O)Nc1cccc2ncccc12	inconclusive: 37.9 µM [inhibitor, single point]	–
O=C(COC(=O)c1c2c(nc3ccccc13)CCCC2)c1cccs1	active: 10.7 µM	–
COc1ccc(S(=O)(=O)N(Cc2ccccc2)Cc2nc3ccccc3c(=O)[nH]2)cc1	–	inactive: 2.42%
O=C(/C=C/c1cn(-c2ccccc2)nc1-c1ccc2c(c1)OCCO2)NCCO	–	inactive: -3.32%
CCOc1cc(/C=C/C(=O)c2ccc(C)cc2)ccc1OCC(=O)N(C)C	inconclusive: 21.3 µM [inhibitor, partial curve, poor fit]	–
O=C(NCC(F)(F)F)Nc1cccnc1	–	inactive: -1.29%
CCc1nnc(NC(=O)/C=C/c2ccco2)s1	inconclusive: 21.3 µM [inhibitor, partial curve, poor fit]	–
CCCCOc1ccc(-c2ncc(C(=O)O)c(C)n2)cc1	active: 2.39 µM	–
CSc1ccc(-c2ccco2)nn1	inconclusive: 37.9 µM [inhibitor, single point]	–
O=C/C(=C\Nc1ccccn1)c1nc2cc(Cl)ccc2o1	inconclusive: 23.9 µM [inhibitor, single point]	–
Cc1ccc2nc(N3C(=O)C(O)=C(C(=O)c4ccco4)C3c3cccc(O)c3)sc2c1 (stereo unspecified)	inconclusive: 26.9 µM [inhibitor, single point]	–
CC(=O)c1ccc(N2CCN(S(=O)(=O)c3ccc4c(c3)CC(C)N4C(C)=O)CC2)cc1 (stereo unspecified)	–	inactive: -11.5%
Fc1c(F)c(F)c(N/N=C/c2c[nH]c3ccccc23)c(F)c1F	inconclusive: 26.9 µM [inhibitor, single point]	–
COc1ccc(NC(=O)COC(=O)CNC(=O)C2CCCCC2)cc1	inconclusive: 37.9 µM [inhibitor, single point]	–
COc1ccccc1-c1ccc(SCc2ccc(C)cc2)nn1	active: 15.1 µM	–
COc1cc(/C=C(\C#N)C(=O)Nc2ccc(C)cc2)ccc1OCc1cc(=O)n2nc(C)sc2n1	–	inactive: -6.26%
COc1ccc(N2CC(NC(=O)c3cc4ccccc4o3)CC2=O)cc1OC (stereo unspecified)	–	inactive: 2.4%
CCOc1ccc(N2C(=O)CC(Sc3n[nH]c(-c4ccccc4)n3)C2=O)cc1 (stereo unspecified)	inconclusive: 23.9 µM [inhibitor, partial curve, poor fit]	–
CC1CCCC(NC(=O)c2ccc3c(c2)OCO3)C1C (stereo unspecified)	active: 12 µM	–
Cc1ccc(C)c(NC(=S)N/N=C2\CCc3ccccc32)c1	inconclusive: 19 µM [inhibitor, partial curve]	–
Cc1ccc(N/N=C(\C#N)C(N)=S)cc1C	inconclusive: 19 µM [inhibitor, partial curve, poor fit]	–

SMILES	Potency	activity change, negative = inhibition
COc1cccc(C(=O)Nc2cccc(-c3ccc(N4CCOCC4)nn3)c2)c1OC	active: 0.379 µM	–
COC(=O)c1ccc(NC(=O)c2cc(=O)c3ccc(C)cc3o2)cc1	–	inactive: -4.68%
CC(C)c1ccc(NC(=O)c2cccc3c2C(=O)N(C2CCCCC2)C3)cc1	inconclusive: 6.01 µM [inhibitor, full curve]	–
Cc1ccc(-c2nsc3c(N4CCC(C(N)=O)CC4)ncnc23)cc1	active: 1.51 µM	–
COc1ccc(OCC2CCCN(Cc3nc(CC4CC4)no3)C2)cc1 (stereo unspecified)	inconclusive: 23.9 µM [inhibitor, single point]	–
CCOC(=O)Cc1c(C)c2ccc(N(CC)CC)cc2oc1=O	inconclusive: 21.3 µM [inhibitor, partial curve, poor fit]	–
Fc1ccc(C2Nc3cccc4cccc(c34)N2)cc1	inconclusive: 23.9 µM [inhibitor, partial curve, poor fit]	–
O=C(Oc1cc(=O)n2ccccc2n1)c1ccccc1	inconclusive: 15.1 µM [inhibitor, partial curve]	–
CC(=O)c1ccc2noc(-c3ccccc3)c2c1	inconclusive: 26.9 µM [inhibitor, partial curve, poor fit]	–
O=C(Nc1ncc2c(n1)CC(c1ccco1)CC2=O)c1ccc(Cl)cc1 (stereo unspecified)	inconclusive: 19 µM [inhibitor, partial curve, poor fit]	–
Cc1cccc(N2CCN(C(=O)c3cnn(-c4cccc(Cl)c4C)c3C3CCNCC3)CC2)c1C	–	inactive: -1.77%
CC(C)c1ccc(OCc2ccc(C(=O)N3CCCC3)o2)cc1	active: 16.9 µM	–
Cc1ccccc1OCC(O)CN1CCC(C)CC1 (stereo unspecified)	–	inactive: -0.831%
CCOc1ccc(-n2c(O)c(/C=N/Nc3nnc(C)c(=O)[nH]3)c3ccccc3c2=O)cc1	inconclusive: 37.9 µM [inhibitor, single point]	–
CCOc1ccc(-c2c(C(=O)N/N=C/c3ccc(OC(C)C)cc3)nnn2-c2nonc2N)cc1	inconclusive: 10.7 µM [inhibitor, partial curve]	–
O=C(NCCc1ccc(Cl)cc1)c1ccc(OCC2CCCO2)cc1 (stereo unspecified)	inconclusive: 26.9 µM [inhibitor, single point]	–
COc1cc(NC(=O)c2ccc(Br)o2)c(C(=O)O)cc1OC	active: 21.3 µM	–
Cc1[nH][nH]c(=O)c1C(c1ccc(-c2cccc(C(=O)O)c2)o1)c1c(C)[nH][nH]c1=O	active: 15.1 µM	–
CCOC(=O)c1c(NC(=O)CSc2nc3ccc(OC)cc3[nH]2)sc2c1CC(C)(C)NC2(C)C	–	inactive: -5.03%
O=C(NC(=S)Nc1cc([N+](=O)[O-])ccc1O)C1CC1	inconclusive: 37.9 µM [inhibitor, single point]	–
COc1cc(/C=N/Nc2cc(C)nc(N)n2)ccc1O	active: 9.53 µM	–
CSc1ncccc1-c1nc2ccccc2[nH]1	active: 21.3 µM	–
Cn1nccc1C(=O)Nc1ccc2c(c1)OCO2	inconclusive: 21.3 µM [inhibitor, single point]	–
